Assay results: a collection of fitness landscapes (doi:10.1016/j.celrep.2020.107928)
Whole data set: some 81,000 sequences, median “one-hybrid fitness for binding NBS DNA” near -0.1, cut for the highest 2% near 0.36. The list shows a part of the results.

B1: Caulobacter ParB omega fusion; a variant is named by its letters at X, in order, B8GW30 (parent)
chain: MESVVVGEPGMSEGRRGLGRGLSALLGEVDAAPAQAPGEQLGGSREAPIEILQRNPDQPRRTFREEDLEDLSNSIREKGVLQPILVRPSPDTAGEYQIVAGERAWRAAQRAGLKTVPIMVRELDDLAVLEIGIIENVQRADLNVLEEALSYKVLMEKFERTQENIAQTIGKSXSHVANXMRLLXLPDEVQSYLVSGELTAXHARAIAAAADPVALAKQIIEGGLSVRETEALARKAPNLSAGKSKGGRPPRVKDTDTQALESDLSSVLGLDVSIDHRGSTGTLTITYATLEQLDDLCNRLTRGI

Variants of: B1
Test: one-hybrid fitness for binding NBS DNA (the Noc-binding site; scaled: cognate 1, non-cognate 0); higher = stronger binding
Conditions: with NBS DNA site
Procedure, shortened: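 On M9-minus-histidine containing 0.1 mM IPTG and 5 mM 3-AT, E. coli USO cells with a HIS3 reporter, site 19 bp from the promoter, grew 48 hours at 37°C to select Caulobacter ParB libraries randomised at four specificity codons. Plasmids from before and after were Illumina-sequenced, with three replicate libraries pooled and variants under 10 reads left out. Fitness is the log change in variant-to-wild-type read ratio, rescaled against cognate and non-cognate.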

Variant	one-hybrid fitness for binding NBS DNA
RGGW	≤ 0.2
TTKS	≤ 0.2
MNLW	≤ 0.2
APRV	≤ 0.2
IFTT	≤ 0.2
LDMI	≤ 0.2
WPKS	≤ 0.2
HFGI	≤ 0.2
SMRA	≤ 0.2
QTWV	≤ 0.2
PLGR	≤ 0.2
EKTR	≤ 0.2
GMEG	≤ 0.2
RWLG	≤ 0.2
YYLT	≤ 0.2
CIAR	≤ 0.2
ASQW	≤ 0.2
DERY	≤ 0.2
SFEG	≤ 0.2
SLNQ	≤ 0.2
GKTR	≤ 0.2
PGMV	≤ 0.2
YGYV	≤ 0.2
YNNI	≤ 0.2
VYRM	≤ 0.2

Variant	one-hybrid fitness for binding NBS DNA
SDDS	≤ 0.2
FPVR	≤ 0.2
TSMS	≤ 0.2
KGGW	≤ 0.2
PMQG	≤ 0.2
RQDT	0.268
AWNN	≤ 0.2
INIG	≤ 0.2
FILL	≤ 0.2
KSMG	≤ 0.2
QVPE	≤ 0.2
QGGG	≤ 0.2
RSHD	≤ 0.2
WRHM	≤ 0.2
RKQP	≤ 0.2
WPMS	≤ 0.2
SNLM	≤ 0.2
IGHI	≤ 0.2
RMQV	≤ 0.2
EPTC	≤ 0.2
RPQC	≤ 0.2
VRYG	≤ 0.2
KRAY	≤ 0.2
SKAR	≤ 0.2
LHHT	≤ 0.2

Variant	one-hybrid fitness for binding NBS DNA
PYDY	≤ 0.2
DNSY	≤ 0.2
RSWM	≤ 0.2
WCLS	≤ 0.2
VLSW	≤ 0.2
VEWF	≤ 0.2
LSPY	≤ 0.2
PSTC	≤ 0.2
VTNR	≤ 0.2
QVME	≤ 0.2
DTGM	≤ 0.2
TAMG	≤ 0.2
TVFV	≤ 0.2
KKHS	≤ 0.2
TARK	≤ 0.2
QWFR	≤ 0.2
PVPE	≤ 0.2
HKLF	≤ 0.2
EMTS	≤ 0.2
LVCL	≤ 0.2
VPGI	≤ 0.2
VLNR	≤ 0.2
VFAC	≤ 0.2
CMNE	≤ 0.2
VTHR	≤ 0.2

Variant	one-hybrid fitness for binding NBS DNA
GMLV	≤ 0.2
RACQ	≤ 0.2
QELE	≤ 0.2
YMPY	≤ 0.2
HPPV	≤ 0.2
RQLF	≤ 0.2
HWGV	≤ 0.2
TLFK	≤ 0.2
YMDV	≤ 0.2
NGKV	≤ 0.2
ATVF	≤ 0.2
SVGN	≤ 0.2
WLNR	≤ 0.2
HTKR	0.266
RVTD	≤ 0.2
YGFS	≤ 0.2
VIEK	≤ 0.2
DGAV	≤ 0.2
REET	≤ 0.2
TSRL	≤ 0.2
RACV	≤ 0.2
WISG	≤ 0.2
GKLD	≤ 0.2
DHMV	≤ 0.2
LEQC	≤ 0.2

Variant	one-hybrid fitness for binding NBS DNA
MHLE	≤ 0.2
EACT	≤ 0.2
GLHS	≤ 0.2
NQQR	≤ 0.2
RDSN	≤ 0.2
KKRK	≤ 0.2
QLMS	0.252
HNQL	≤ 0.2
AWAG	≤ 0.2
RRMG	0.317
RNFY	≤ 0.2
EGWP	≤ 0.2
FLNG	≤ 0.2
CLCL	≤ 0.2
GCSH	≤ 0.2
AVVC	≤ 0.2
TPNT	≤ 0.2
CGSL	≤ 0.2
NSFS	≤ 0.2
VWEP	≤ 0.2
RPCE	≤ 0.2
QTDC	≤ 0.2
PYLK	≤ 0.2
VVAT	≤ 0.2
FNAG	≤ 0.2

Variant	one-hybrid fitness for binding NBS DNA
QQYC	≤ 0.2
GSQG	≤ 0.2
PLMR	≤ 0.2
IQRT	≤ 0.2
YDTW	≤ 0.2
VNYS	≤ 0.2
GYTS	≤ 0.2
DHPG	≤ 0.2
KWLG	≤ 0.2
NGSS	≤ 0.2
PQFI	≤ 0.2
YQGR	≤ 0.2
KCVG	≤ 0.2
PVPA	≤ 0.2
QRQW	0.276
DMPG	≤ 0.2
VRST	0.229
HRDH	≤ 0.2
IKVG	≤ 0.2
DQAE	≤ 0.2
LYRP	≤ 0.2
QSRF	0.265
PHIW	≤ 0.2
DFRG	≤ 0.2
QMPT	0.312

Variant	one-hybrid fitness for binding NBS DNA
AHLL	≤ 0.2
GNRV	≤ 0.2
TREG	≤ 0.2
VRII	≤ 0.2
QRGQ	0.435
KIFC	≤ 0.2
RKGN	≤ 0.2
RLFC	≤ 0.2
GCPL	≤ 0.2
QVGP	≤ 0.2
KMLS	≤ 0.2
LSNW	≤ 0.2
QKSY	≤ 0.2
EKQN	≤ 0.2
ALEY	≤ 0.2
VPWY	≤ 0.2
TDFC	≤ 0.2
PHTR	≤ 0.2
YIDT	≤ 0.2
LKTT	≤ 0.2
IRQL	≤ 0.2
YDRI	≤ 0.2
HTAC	≤ 0.2
TGYW	≤ 0.2
RQLL	≤ 0.2

Variant	one-hybrid fitness for binding NBS DNA
WFTT	≤ 0.2
MAYM	≤ 0.2
GDMR	≤ 0.2
QEFY	≤ 0.2
ESCS	≤ 0.2
KHAT	≤ 0.2
VPAG	≤ 0.2
KALE	≤ 0.2
HKKM	≤ 0.2
DHRL	≤ 0.2
AWWR	≤ 0.2
LHDR	≤ 0.2
HYGL	≤ 0.2
NGKS	≤ 0.2
RCAK	≤ 0.2
CTHC	≤ 0.2
QDGT	≤ 0.2
VSAR	≤ 0.2
QIQT	0.283
RVWH	≤ 0.2
